Experimental data from PubChem BioAssay AID1347417 (National Center for Advancing Translational Sciences (NCATS), 2020).
In all, about 120,000 compounds went through this assay and about 5,300 (4.4%) were called active. The inconclusive results got no clear call from the source; some entries with a clear call stand among them for comparison. The call rests on the fitted dose curve; in most records, active means well fitted inhibition curve with a large enough effect; inconclusive means small, poorly fitted or top-dose-only effect; inactive means no such curve, though single readings can be large or run the other way. Potencies of inconclusive entries are doubtful fits and often do not repeat.

Assay: qHTS Primary assay for Inhibitors of Plasmodium falciparum Dd2 growth in vitro; further: nearly all actives have a fitted effect of over 65% in size;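 on activity, negative = inhibition: plate controls were DMSO vehicle for no effect and reference drug for full effect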
Conditions: P. falciparum Dd2 growth, SYBR Green, 72 h; activity, negative = inhibition: at 28.9 µM (top of the series) unless noted; series mostly up to 28.9 µM
Outline: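 Infected erythrocytes (Dd2, 0.3% parasitemia, 2.5% hematocrit final) are added to compound in RPMI-1640/Albumax II medium, grown 72 h at 37C in low oxygen, then lysed with saponin/Triton-X containing SYBR Green and read by fluorescence.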
Potency means the concentration at half of the fitted maximal effect; tags describe the fitted curve by direction and shape.

Row | Compound | Potency | activity, negative = inhibition
1 | CCN1C(=O)c2ccccc2Sc2ccc(NC(=O)Nc3ccc(C(C)=O)cc3)cc21 | inconclusive: 17.8 µM [inhibitor, single point] | 
2 | O=C(NC1CCc2nnc(C3CC3)n2CC1)c1ccsc1 (stereo not given) | inactive | 
3 | CN1C[C@@H](NC(=O)NC2CCCCC2)C[C@H]1c1nc(Cc2ccccc2)no1 | inconclusive: 31.6 µM [inhibitor, single point] | 
4 | CC(C)CN1C(=O)c2ccccc2C(C(=O)Nc2ccc(C(N)=O)cc2)C12CCCC2 (stereo not given) | inconclusive: 20 µM [inhibitor, single point] | 
5 | COc1cccc(C(=O)N[C@H]2[C@H](O)[C@H](O)C[C@@H]2c2ccc(C(F)(F)F)nc2)c1 | inconclusive: 7.08 µM [inhibitor, partial curve, poor fit] | 
6 | O=c1n(-c2cccc(Cl)c2)nc2n1CCN([S+](=O)([O-])c1cccs1)C2 | inconclusive: 10 µM [inhibitor, single point] | 
7 | CCn1cc(C(=O)NCc2ccc(F)cc2)c(=O)c2cc(S(=O)(=O)N(C)C)ccc21 | inconclusive: 11.2 µM [inhibitor, single point] | 
8 | CN(Cc1cccn1C)C(=O)NC1CCCC1 | inconclusive: 10 µM [inhibitor, partial curve, poor fit] | 
9 | O=C1N(CC2CCC2)CCCC12CCN(Cc1ccc(-c3ccn[nH]3)s1)C2 (stereo not given) | inconclusive: 10 µM [inhibitor, partial curve] | 
10 | Cc1cc(C)c(Cn2c3ccccc3c3cnn(CC(=O)NCC(C)c4ccccc4)c(=O)c32)c(C)c1 (stereo not given) | inconclusive: 14.1 µM [inhibitor, single point] | 
11 | O=C(/C=C/c1ccc(Cl)cc1)Nc1nc(-c2cccs2)ns1 | inconclusive: 11.2 µM [inhibitor, single point] | 
12 | O=C(NC1CCCCC1)N1CCCCCC1CN1CCCC1 (stereo not given) | inconclusive: 1.58 µM [inhibitor, partial curve, poor fit] | 
13 | NC(=O)CO[C@@H]1CO[C@H]2[C@@H]1OC[C@@H]2NC(=O)NCc1ccccc1 | inactive | 
14 | CCCN(CCC)C(=O)CSc1nnc2cc(C)c3ccccc3n12 | inconclusive: 7.94 µM [inhibitor, partial curve] | 
15 | CCOc1ccccc1NC(=O)CN1CCN(S(=O)(=O)c2ccc(Br)cc2)CC1 |  | inconclusive: -54.5% [inhibitor] [at 5.79 µM]
16 | CN(Cc1ccc(-c2ccccc2)cc1)Cc1cccnc1 | active: 3.98 µM | 
17 | CCC1CCCCN1Cc1cn2c(-c3ccc(Br)cc3)nnc2s1 (stereo not given) | inconclusive: 17.8 µM [inhibitor, single point] | 
18 | CC(=O)c1cccc(NC(=O)c2nc(-c3ccccc3)n(-c3cccc(C)c3)n2)c1 | inconclusive: 6.31 µM [inhibitor, partial curve, poor fit] | 
19 | O=C(N[C@@H](Cn1cc(Cl)c(=O)[nH]c1=O)C(=O)O)C1CCC1 | inconclusive: 12.6 µM [inhibitor, partial curve, poor fit] | 
20 | O=C(Nc1nc2n(n1)C(c1ccc(F)cc1)C=C(c1ccccc1)N2)c1cccc([N+](=O)[O-])c1 (stereo not given) | active: 3.16 µM | 
21 | COC(=O)[C@@H]1Cc2c([nH]c3ccccc23)[C@H]2C[C@@H](NCc3cccs3)C[C@@H](c3ccc(F)cc3)N21 | inconclusive: 10 µM [inhibitor, single point] | 
22 | COc1cc2c(cc1OC)C(COc1ccccc1OC)N(C(=O)c1ccccc1OC)CC2 (stereo not given) | inconclusive: 10 µM [inhibitor, single point] | 

Row | Compound | Potency | activity, negative = inhibition
23 | Cn1nc(C(=O)NCC23CCCC=C2NC(=O)CC3)c2ccccc21 (stereo not given) | inactive | 
24 | Cc1cc(C)c(NC(=O)Cn2c(=O)n(Cc3ccccc3)c(=O)c3c(C)c(C(=O)N(C)C)sc32)c(C)c1 | inactive | 
25 | COc1cc(OC)c(NC(=O)c2c3c(nc4ccccc24)C(=O)N(C2CCCCC2)C3)cc1Cl | inconclusive: 12.6 µM [inhibitor, single point] | 
26 | CC(C)CCNC(=O)c1cn(C)c2ccc(S(=O)(=O)N3CCOCC3)cc2c1=O | inconclusive: 17.8 µM [inhibitor, single point] | 
27 | O=C(NCCC1CCN(C(=O)Nc2ccc(F)cc2)CC1)c1ccccn1 | inconclusive: 2.51 µM [inhibitor, partial curve, poor fit] | 
28 | COC1C(=O)N(c2cccc(F)c2)C12CCN(C(=O)c1cc3ccccc3[nH]1)CC2 (stereo not given) | inconclusive: 1.78 µM [inhibitor, full curve, poor fit] | 
29 | O=c1n(-c2ccc([N+](=O)[O-])cc2)nc2n1CCN(CC1CC1)C2 | inconclusive: 5.01 µM [inhibitor, single point] | 
30 | CCCN1CCN(CCCNC(=O)Cn2c(-c3cccs3)cc3cc(Cl)ccc32)CC1 | active: 8.91 µM | 
31 | Cc1ccsc1CN1CCC2(CC1)CC(CC(=O)NCc1ccncc1)CCO2 (stereo not given) | inactive | 
32 | Cc1ccc2occ(CC(=O)N3CCN(c4cccc(Cl)c4)CC3)c2c1 | inconclusive: 17.8 µM [inhibitor, single point] | 
33 | O=C(O)c1ccc(CN2CCC[C@@H](O)[C@H](NC(=O)c3ccc(OCc4ccccc4)cc3)C2)cc1 | inconclusive: 11.2 µM [inhibitor, single point] | 
34 | O=[S+]([O-])(c1ccncc1)c1nnn2c1nc(NC1CCCC1)c1ccccc12 | inactive | 
35 | Cc1ccc(-c2nnc(C3CN(C(=O)CC(C)(C)C)CC34CCOCC4)o2)cc1 (stereo not given) | inactive | 
36 | Cc1cc(=O)[nH]c(NCCNc2nccc(-c3cccnc3)n2)n1 | inactive | 
37 | CC(C)C(=O)Nc1ccc(C2(C(=O)N3CCN(c4ccccn4)CC3)CCCCC2)cc1 | inconclusive: 7.08 µM [inhibitor, partial curve, poor fit] | 
38 | COc1ccccc1CNC(=O)c1cc2ccc3ccc(C)[nH]c3c2n1 | inconclusive: 10 µM [inhibitor, single point] | 
39 | CNC(=O)[C@@H]1C[C@H](Oc2cccnc2)CN1S(=O)(=O)c1ccccc1 | inactive | 
40 | N#Cc1cccc(CN2CC[C@@H]3OCC(=O)N(Cc4c[nH]c5ccccc45)[C@H]3CC2)c1 | inactive | 
41 | Cc1nn(CCC#N)c(C)c1[C@@H]1C=C[C@@H](NCc2ccc(C(C)C)cc2)C1 | inconclusive: 15.8 µM [inhibitor, single point] | 
42 | C#CCNC[C@@H]1C=C(C)[C@H](Cc2nnc(Cc3c[nH]c4ccccc34)o2)C[C@H]1C(C)C | inconclusive: 1.78 µM [inhibitor, partial curve, poor fit] | 
43 | Clc1ccccc1-c1nnc(-c2ccccc2CNc2ccccc2)o1 | inconclusive: 7.94 µM [inhibitor, partial curve] | 
44 | O=C1CC2CCN(Cc3c[nH]c4ccccc34)CC2CCN1 (stereo not given) | inactive | 

Row | Compound | Potency | activity, negative = inhibition
45 | COc1cc(C2c3c(-c4ccccc4O)n[nH]c3C(=O)N2CCO)ccc1OCC(C)C (stereo not given) | active: 10 µM | 
46 | COc1ccc(Cc2c(C)nn(-c3nc(C)c(C(=O)Nc4ccc(C)cc4C)s3)c2C)cc1 | inactive | 
47 | COc1ccc(NC(=O)c2oc3ccc(S(=O)(=O)N4CCC5(CC4)OCCO5)cc3c2C)cc1Cl | inconclusive: 10 µM [inhibitor, partial curve, poor fit] | 
48 | COc1cccc(C(C(=O)NCc2ccccc2)N(C(=O)Cn2nnc3ccccc32)c2cccc(C(C)=O)c2)c1 (stereo not given) | inconclusive: 10 µM [inhibitor, single point] | 
49 | Cc1ccc(C)c(CSc2cn(CCNC(=O)c3ccccc3F)c3ccccc23)c1 | inconclusive: 8.91 µM [inhibitor, single point] | 
50 | CN1CC(=O)N(C2CCCNCC2)Cc2c(NCCCO)ncnc21 (stereo not given) |  | inconclusive: -36.2% [inhibitor]
51 | CCOC(=O)c1ccc(NC(=O)c2c(NCc3cc(OC)ccc3OC)sc3c2CCC3)cc1 | inconclusive: 10 µM [inhibitor, single point] | 
52 | CCN1C(=O)C2CC3(CCN(C(=O)Cn4c(=O)oc5ccccc54)CC3)CN2C1=O (stereo not given) | inconclusive: 3.98 µM [inhibitor, single point] | 
53 | COCCN1C(=O)c2ccccc2C(C(=O)Nc2cc(OC)ccc2OC)C12CCCC2 (stereo not given) | inactive | 
54 | CCc1cnc2c(c1SCCC(C)C)c(=O)n(C)c(=O)n2C | inconclusive: 10 µM [inhibitor, single point] | 
55 | Cc1nc2c(c(-c3ccc(O)cc3)n1)CN(C(=O)Cc1ccccn1)CCC2 | inactive | 
56 | COCCNC(=O)c1cnc2c(c1)N(Cc1ccccc1C(F)(F)F)CCC2 | inconclusive: 5.62 µM [inhibitor, single point] | 
57 | Cc1ccc2cc3cc(C(=O)N(C)c4ccccc4C)oc3nc2c1 | active: 11.2 µM | 
58 | O=C(NC[C@H]1C[C@@H]2CCN1C[C@@H]2CN1CCN(c2ccccn2)CC1)c1ccc2c(c1)OCO2 | inactive | 
59 | COCCOC1CCOC2(CCN(C(=O)COc3ccc(C)cc3)CC2)C1 (stereo not given) | inconclusive: 5.01 µM [inhibitor, partial curve] | 
60 | Cc1cccc(-n2cnc3cc(C(=O)NC4CCCCCC4)ccc32)c1 | inconclusive: 10 µM [inhibitor, partial curve, poor fit] | 
61 | O=C(NC1CCN(c2cc(C(F)(F)F)ncn2)CC1)c1cccc(Cl)c1 | inactive | 
62 | COc1ccccc1OC1(C(=O)O)CCN(C(=O)C2CC23CCC3)CC1 (stereo not given) | inactive | 
63 | COc1ccc(C)cc1NC(=O)CN1CCN(S(=O)(=O)c2ccc(Br)cc2)CC1 | inconclusive: 17.8 µM [inhibitor, single point] | 
64 | NC(=O)c1ccc(OC2CCN(C(=O)CC3CCCCC3)C2)nc1 (stereo not given) | inactive | 
65 | COCCn1c(C)cnc1CCNC(=O)NCCc1ccccc1 | inactive | 
